Experimental data published in the CheMixHub viscosity set.
The source gives many values for each of these; only a part stands here.

Assay: xn = mol fraction of the nth substance listed
Conditions: 101 kPa

CC(=O)N(C)C + O
viscosity [mPa·s]
Conditions	298.15 K	303.15 K	308.15 K	313.15 K	318.15 K
x1 = 0.0203	–	–	0.9614	0.8638	0.7808
x1 = 0.0212	1.25	–	–	–	–
x1 = 0.0502	–	–	1.27	1.127	1.007
x1 = 0.0703	–	–	1.499	1.32	1.17
x1 = 0.0769	2.025	–	–	–	–
x1 = 0.1	–	–	1.826	1.593	1.402
x1 = 0.1203	–	–	2.044	1.774	1.553
x1 = 0.1497	–	–	2.32	2	1.741
x1 = 0.163	3.213	–	–	–	–
x1 = 0.1698	–	–	2.477	2.127	1.845
x1 = 0.2003	–	–	2.672	2.287	1.977
x1 = 0.22	–	–	2.758	2.358	2.035
x1 = 0.2272	3.8	–	–	–	–
x1 = 0.2497	–	–	2.836	2.422	2.09
x1 = 0.2701	–	–	2.851	2.437	2.103
x1 = 0.3	–	–	2.829	2.422	2.094
x1 = 0.3131	3.867	–	–	–	–
x1 = 0.32	–	–	2.789	2.392	2.072
x1 = 0.3501	–	–	2.701	2.325	2.019
x1 = 0.4002	–	–	2.503	2.17	1.897
x1 = 0.4299	3.211	–	–	–	–
x1 = 0.4503	–	–	2.278	1.992	1.754
x1 = 0.5003	–	–	2.045	1.804	1.602
x1 = 0.5999	–	–	1.651	1.481	1.335
x1 = 0.6373	2.082	–	–	–	–
x1 = 0.7	–	–	1.345	1.224	1.118
x1 = 0.7881	1.58	–	–	–	–
x1 = 0.8002	–	–	1.116	1.028	0.9498
x1 = 0.8499	–	–	1.029	0.9522	0.8841
x1 = 0.8999	–	1.029	0.9541	0.8867	0.8267
